{"source": "patent US6828106", "about": "(dated 2004)", "target": "the molecule itself", "assay": "FRET between the fluorescein- and rhodamine-labelled forms of the same peptide (homodimer)", "data": [{"protein": "KMKQLEDKVRELLSKNYHLENEVACLLKKLVGER (labelled with fluorescein or rhodamine by the procedure of Example 1, GCN4-derived homodimeric reporter; Both labelled forms are written as one molecule)", "note": "[Peptide 3 (Example 4, thrombin site)]", "values": [{"measurement": "binding result", "result": "binds"}]}]}
